Experimental data: the supplement of paper PMC12632987
Over roughly 4,500 sequences, “median log2 fold change of GCK-ALFA target abundance (FLAG IP / Myc IP barcode read proportion)” has its median near 0.078; the lowest 2% begin near -0.6. The list shows a part of the results.

B1: GBRAP_35_5529 (protein)
chain: ATDEEIAEMLVATIDDLVLALPDMPVETALAAAKSIAEAAREVAREVKDNLEALEKIRESVERLAKALAEQAKKDPAMQPALELAQEVLKEIEELIKKAK
B2: GBRAP_78_6685 (protein)
chain: EVEELLDKALEHLGKAAKILAKMNTEEALDILGVVIDAASTVWEAQEGEADLAELEAALKALKKALKEVEKIDSEEAKEAAKEIKKAIKALEAAIKLLKK
B3: GBRAP_128_3496 (protein)
chain: STEELVARTRAIMEAIGKADAAEAAALTREWVALLASADEEAREAMVEVFKELLPELDAEKLDVIADTLREARPGLDPETANLVAELEVEALNAAEEKEE
B4: GBRAP_160_4602 (protein)
chain: SEEVEKLIKEIKEIFDEALKLIEGESPEERLVIIRVAAGEVLLLLDESPIVTDETEEFADEVLDEVLEWLEENPDASLEEIRAKLEEALEKIRKKLEEEA
B5: GBRAP_150_3913 (protein)
chain: DLEELLTVVDTLIDLLEAILDGEYELLPHAIKVAEHAVELAEELEEEIKKLAKEMLEALKEAKKLLEEGGPEEEIKEAVEKALELAEKLEKLIKKLIKEK
B6: GBRAP_52_6322 (protein)
chain: AAARIAAYAAEAVAAIRAGDDAGARALAERMVAELTPEEILEMTRLVAEAIAGEDDAVHERAVEFFEYLADLVIEKRGDERTAADILGIVATTLYAAELA
B7: GBRAP_11_2641 (protein)
chain: KKEALKKALELAREAIELLEQLLKEGVDNEELLEEIRRKLEELAKLVKKHADKALQKLVEIALELLKEAQEDPENKEQYVQNLLAALRVLAAELEELIDE
B8: GBRAP_52_5881 (protein)
chain: KLEKAIELLKKAIKAQKEGKEEEAEKILKKIVEEFDEEVILAAVERLAEEIKSKSLEEAKAFYETAEKLAKILLEKGGSEEVASYIEALAGAALYEVEQK
B9: GBRAP_150_3925 (protein)
chain: SIEELLTIVDTLIDLLEGIKDGELSLVPHALKLAEAAKEEAKELPEEVREPVLKLLEEIIKLLKEIIAGAPEEERKKLIEKALELAKEVKELVEELLEEE
B10: GBRAP_52_6123 (protein)
chain: MEERARALVEEIIALIRAGREEEARALAREAVATLDEEELRLVADELAELIKAATPEEQELLERAAEIIAEELERAGRDEVLADYVLSRAAAAAYEAELA
B11: GBRAP_52_6127 (protein)
chain: MRERAEELVERLLELEREGRREELERLAREIVETLDDEELRLVADVLAERAKRASPEEAEVIERVAEVLARAIEEAGRDEVLADYVESRVAAALYEREQA
B12: GBRAP_9_7167 (protein)
chain: EEAVKQAILETVKEGFEEALKIVPEEKKPLVEKMKKKAEEELEKLVADPNTTVEELKEKALKLLDEFLEEMKKEVDPETYAGIETEILTAKVEIDEIVEK
B13: GBRAP_125_3059 (protein)
chain: SKEQAIADLELLARALGFSDDDIAELRRLAEAGSIKNTLIAIALALGDEELADALEKLSEEEVEEVLREVAEELERNPELTPEEVRELLLKKAKEALKKA
B14: GBRAP_35_5615 (protein)
chain: EDTELAVESFVDQAEAIIELIPEIDDETLAALARSLIKFARSLLEEEKNDKEALEKIKEAMEKLLKALKEHRSDNPLIRKVAEEVEKVIKELKEAIKKIK
B15: GBRAP_160_4698 (protein)
chain: TATAEKLKAFVKEEFEKAKEEIEGESREQRAVILAGTGGEILMELVEDPNATDELEDEVLAIFDDAVATLLANPNLTLEETKALIDEVEAKVLAAIDKHL
B16: GBRAP_125_3136 (protein)
chain: KRAALLALAEALARAMGFSEEEIAEIRRLAEAHDPAQTIVAIFLAAGAEEAAELAAEVLDKLSEEEIAALRALAEAARDLPLEEAVARLLAALKEAKAKL
B17: GBRAP_80_6776 (protein)
chain: ALERAEKAIAEVEKLDPELAKRLRKILEELLAKGVSDEVLEAFAEAVEAIAELLKLGAKEEAEELVEELEEAAEEEDDENILAMLRGIAGEALWEVEELE
B18: GBRAP_160_4544 (protein)
chain: KEKVEEAIKDIDERAAFVKSLVGKVSTEELINFFDVEVGSFIMELEELGLLTDELGEEIDKIADETKATLKANPNASDEEKKALIDEAAEKIKEAILKHS
B19: GBRAP_80_6835 (protein)
chain: MEEELEKAIKEIEKENKEIAKLVKEIVEIARKLGVPLEVLLRLTKAILELTKKDKEKALKLVKELLKEMKEALAAGNRDEALALLVDAESDALLHVEELE
B20: GBRAP_83_6957 (protein)
chain: MITVVATSKDDDIESAFDAAIDLHKEEGIEVEIEVYVTKESAETALKAAKKAIDAGVEAEITLVGLESEKETLLKLAEEIKAHAKAKGVNVKVEVIIEPE
B21: GBRAP_45_5801 (protein)
chain: KEELEKAVKELRELLKKLKEEVEKLLEKDPETMGKVLELLEEALKILDEGPDTVEKAKELLELVEEALKLLASSPHATGELLDLALEAVNKAAEVLELLK
B22: GBRAP_160_4347 (protein)
chain: MEAAEKLIKELKEATERVIAEVDKLSVEQVAVVAAGEFGAVAMEAAEDERYSDEMVDVIIDAQDKILAFLDENKDASPEEIKEGIKKITEEAIKKIKEIA
B23: GBRAP_184_5363 (protein)
chain: MVEHLSVDASTAEEVRERLAAARERIRAAGKPTTLHLFLRDADLETVETGARLLAELKDEGLIVDAVIDVPDERTEEEIDKLVAIADKYGVRLVVAIEDE
B24: GBRAP_160_4600 (protein)
chain: MEEAEKLLEEIEEIIDEAIEMIEGESPENRLVIIRVAMGEILLLIDSSPIVSEEVEDFADKELDAVVAWVEANPDASVEEIAAKLKAALAKIKEKILAEH
B25: GBRAP_184_5234 (protein)
chain: KVLDVEVRADDAAELAAQLAAVEAEAAAAGARVRLILDVKELTAEKAAVIAAQLRRMAAAGLIDLVEVISSTRIAEENVDLLVAAADAAGVRLVLAMVEE
B26: GBRAP_160_4446 (protein)
chain: SETLEKLLKLVEETEEEIKKLIEGQSHEERVVIVDVGFGELLLEFIENENVSDELEDEIDKIVRETVEYLKANPDLSEEEIKELIKETAEKIKEAIKKHL
B27: GBRAP_160_4409 (protein)
chain: SEELKKTAERILEAVKEELELLLELGEIDPEAAAGLLEGTILLEVFEDDSLTEEQEEKLEELAEELAEELRKRLEEEGKMTEEIKEELLKLAKEGLEKII
B28: GBRAP_78_6608 (protein)
chain: EKKEKIEELLDKAAELLRQVRKLEPEVANEANDAETLVNTALYMVTTGSESKEEIIEEVEEAAEEAERLLKLLEGKDKEVQELAKKALEYIKEALKLLKE
B29: GBRAP_166_4989 (protein)
chain: SLEELKEELEKELEEVLKKIEEADKDEVIELLIDFGIKLEEARKKGLPLEYALELAVRLAVEAAKRIGDPRLAVGVIAEAAGLDEEELDKLLEEVEKRLK

The binders below were run against GABARAP, O95166 (assay: median log2 fold change of GCK-ALFA target abundance (FLAG IP / Myc IP barcode read proportion) (log2 ratio); each designed protein is fused to an ALFA-tag nanobody in HEK293 cells to bring the named protein to FLAG-tagged glucokinase (GCK); Myc marks an untargeted standard; higher = target protein stabilised (more abundant)). Details: target protein: 3xFLAG-MCP-GCK-ALFA reporter; HEK293 landing pad (RPLP).
Method in brief: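 HEK293 landing-pad cells received a recombined binder library fused to the ALFA nanobody and were induced with 2 μg mL^−1 doxycycline, then transfected with a plasmid encoding a FLAG-tagged target and a Myc-tagged standard. Lysates were collected after 48 h for anti-FLAG and anti-Myc immunoprecipitation, and the circular RNA barcodes were reverse transcribed, amplified and sequenced. Target abundance for each binder is the median log2 ratio of FLAG to Myc barcode read proportions. Barcodes had to reach a proportion of at least 10^−7 in both replicates, each binder needed at least 3 barcodes per replicate, a pseudocount of 10^−6 was applied, and the two replicates were pooled.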

Chain of GABARAP, O95166 (O95166 whole entry, the tested form may be a part): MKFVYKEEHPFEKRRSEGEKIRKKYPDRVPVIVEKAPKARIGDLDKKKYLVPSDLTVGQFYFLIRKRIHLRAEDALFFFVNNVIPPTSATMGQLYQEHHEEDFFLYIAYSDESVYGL

Row | Binder | median log2 fold change
1 | B1 | 0.24
2 | B2 | -0.373
3 | B3 | 0.208
4 | B4 | -0.397
5 | B5 | 0.174
6 | B6 | -0.0845
7 | B7 | 0.112
8 | B8 | 0.313
9 | B9 | 0.235
10 | B10 | 0.226
11 | B11 | 0.187
12 | B12 | 0.291
13 | B13 | 0.274
14 | B14 | 0.0862
15 | B15 | -0.69
16 | B16 | -0.351
17 | B17 | -0.346
18 | B18 | 0.0163
19 | B19 | 0.133
20 | B20 | 0.127
21 | B21 | -0.367
22 | B22 | 0.152
23 | B23 | 0.152
24 | B24 | -0.532
25 | B25 | 0.0463
26 | B26 | -0.136
27 | B27 | -0.32
28 | B28 | 0.181
29 | B29 | 0.241
